# Measured values: the supplement of paper PMC12217912
# The list shows a part of the results. Sequences were assembled here from the parent chain. Values near 0.05 are background.
# B1: TEV protease; numbered along this chain (parent)
# chain: MGESLFKGPRDYNPISSSICHLTNESDGHTTSLYGIGFGPFIITNKHLFRRNNGTLVVQSLHGVFKVKDTTTLQQHLVDGRDMIIIRMPKDFPPFPQKLKFREPQREERICLVTTNFQTKSMSSMVSDTSCTFPSGDGIFWKHWIQTKDGQCGSPLVSTRDGFIVGIHSASNFTNTNNYFTSVPKNFMELLTNQEAQQWVSGWRLNADSVLWGGHKVFMVKPEEPFQPVKEATQL
# Variants of: B1
# Assay: raw area under fraction-flipped curve 0-4 h after induction (AUC4h, not background-subtracted), DNA-recorder readout of cleavage of the substrate (dimensionless); higher = more cleavage of the substrate by the protease variant
# Conditions: temperature: 34 °C; time window: 0-4 h after rhamnose induction
# Method: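 In vivo DNA recorder in E. coli TOP10(DE3) ΔrhaA at 34 °C. Each TEVp single-site mutant (parent TEVp 0) is paired with a single-site variant of the 7-mer TEVs (canonical ENLYFQ|S). The substrate sits between flexible linkers in a Bxb1-sfGFP-TEVs-SsrA fusion, so cleavage stabilises Bxb1 and speeds flipping of a recombination array, read by NGS. The value is the raw area under the fraction-flipped curve over 0-4 h after rhamnose induction (AUC4h), with ≥20 reads per time point. It is not background-subtracted; inactive controls average about 0.047.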
# 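Further: Bxb1 expression induced with 0.2% (w/v) L-rhamnose at OD600 near 0.5, cultures sampled hourly, flipped fraction per protease–substrate barcode pair counted by paired-end Illumina sequencing.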
Variant,area with substrate DNLYFQS,area with substrate FNLYFQS,area with substrate GNLYFQS,area with substrate HNLYFQS,area with substrate INLYFQS,area with substrate KNLYFQS,area with substrate LNLYFQS,area with substrate MNLYFQS,area with substrate NNLYFQS,area with substrate PNLYFQS,area with substrate RNLYFQS,area with substrate SNLYFQS,area with substrate TNLYFQS,area with substrate WNLYFQS,area with substrate YNLYFQS,area with substrate VNLYFQS,area with substrate QNLYFQS
L112P,0.0647,0.0411,0.0515,0.0669,0.0488,0.059,0.0514,0.0626,0.0515,0.0512,0.0568,0.0604,0.0415,0.0495,–,–,–
S135Q,0.062,0.0575,–,0.0521,0.0547,0.0423,0.0655,0.0537,0.0695,0.0584,–,0.0706,0.05,0.0579,0.0575,–,–
M83Q,0.0481,0.0409,–,0.0524,0.0578,0.0482,0.0617,0.0517,–,0.0454,–,0.0353,0.0612,0.0615,–,–,–
M83S,0.0606,0.0579,0.0442,0.0524,–,–,0.0307,–,–,0.067,–,0.0425,0.053,0.0738,–,0.0631,–
M83A,0.0602,–,0.0571,0.0539,0.0577,0.0666,0.0411,0.0623,0.0546,0.0657,0.0662,0.0711,0.0644,0.0596,0.0668,0.048,0.0761
M83P,0.0371,–,0.0452,–,0.0322,0.0422,–,–,–,0.0465,0.0577,0.0298,0.0612,0.0401,–,–,0.0531
R102K,0.0803,–,0.0779,0.0569,–,0.0492,0.0741,0.0645,0.0756,0.0762,–,–,0.0587,0.0591,–,–,–
I110C,0.0933,–,0.0583,0.0665,0.0616,0.0445,0.056,0.0582,0.0784,0.0711,0.0689,0.0563,0.0675,0.0588,0.07,0.0486,–
H76P,0.0552,–,0.0527,0.0466,–,0.0511,0.0516,–,0.0502,0.0594,0.0538,–,–,0.0572,–,–,–
M122C,0.0638,0.0709,0.0904,0.065,0.0691,0.0614,0.0824,0.0547,–,0.0685,0.0754,0.0589,0.0695,–,0.0421,0.0847,0.0653
M122D,0.102,0.0863,–,0.0608,–,0.0769,0.0731,0.0412,0.0766,0.0799,–,0.0673,0.0608,–,0.0863,0.0461,–
M122S,0.0969,–,0.0715,0.0683,–,0.0637,0.0643,–,0.0699,0.0588,–,–,0.0704,0.0628,0.0401,–,–
V126S,0.11,0.0655,–,0.0683,0.0314,0.0701,0.0616,–,0.0554,–,–,0.0802,0.0804,0.0578,0.0693,0.066,0.0624
I86Y,0.0565,0.0417,–,0.0446,–,–,–,0.0649,0.0664,0.0083,–,0.0634,–,0.0575,–,–,–
P94M,0.0891,0.0635,0.0691,–,–,–,0.0647,–,0.0734,0.0691,–,0.0106,0.0612,0.0576,0.0586,–,–
F92P,0.0387,–,–,0.0654,–,0.0613,0.0737,0.0528,0.0514,0.047,0.0528,0.0531,0.0278,0.0471,0.0503,0.0541,–
S127F,0.081,–,0.086,0.0664,0.0775,0.0674,0.0773,–,0.0735,0.0675,0.0632,0.0814,0.0663,0.0547,–,–,–
S127V,0.0902,0.0754,0.0779,0.0762,–,0.0391,0.0644,0.105,0.0506,0.0872,0.0606,0.0699,0.07,0.0609,–,–,0.0764
I139D,0.0817,–,0.0644,–,–,0.0649,0.0551,–,–,–,–,0.0617,0.0589,–,0.0433,0.06,–
F101T,0.0503,–,0.0575,0.0479,–,–,0.06,0.0553,0.0556,–,0.0571,–,–,0.0704,–,–,0.0399
D137E,0.099,0.0653,0.0839,0.0741,–,0.0694,0.0663,0.101,–,–,–,–,0.0694,0.0709,0.0679,0.0782,–
E108H,0.0382,–,0.0517,0.0544,0.0593,0.0607,0.0694,0.0526,–,0.0381,–,0.0791,0.075,0.0317,0.0371,0.0564,–
E108C,0.0628,–,0.0676,0.0602,0.0369,0.0532,–,0.0657,–,0.05,–,–,0.0557,0.0554,–,–,0.0708
E108L,0.0621,–,0.055,0.0628,–,0.0619,–,0.0393,0.0596,0.0544,–,–,0.057,0.0537,0.053,–,–
K90C,0.0845,0.0622,0.0842,0.0876,0.0623,–,0.0689,–,0.0697,0.0573,0.0678,0.0651,0.0658,0.0718,0.0637,0.0578,–
K90Q,0.0968,0.0762,–,0.0507,–,–,–,–,–,0.0692,–,–,0.0557,–,0.0613,0.0705,–
S123F,0.0824,0.0625,0.0732,0.0619,–,0.0738,0.0661,0.0664,0.0673,0.054,–,0.0604,0.0616,0.0676,0.0665,–,–
C111F,0.0828,0.048,0.0684,0.0602,–,–,0.0397,0.0834,0.0623,0.0667,0.0596,0.079,0.0606,0.063,–,0.0735,–
C111V,0.0857,–,0.0826,0.0517,–,–,0.0569,–,–,0.0543,–,0.042,0.0666,0.0508,0.077,0.07,–
